# The campaign covered roughly 310,000 compounds. About 2,200 (0.71%) showed an effect of 50% or more. Effects have a minus sign here. The list shows a part of the results.
# Molecular target: human ether-à-go-go-related gene (hERG) potassium channel (human, UniProt Q12809)
# Assay: primary screen, population patch clamp on CHO cells stably expressing hERG
# Chain of human ether-à-go-go-related gene (hERG) potassium channel (Q12809 whole entry, looked up): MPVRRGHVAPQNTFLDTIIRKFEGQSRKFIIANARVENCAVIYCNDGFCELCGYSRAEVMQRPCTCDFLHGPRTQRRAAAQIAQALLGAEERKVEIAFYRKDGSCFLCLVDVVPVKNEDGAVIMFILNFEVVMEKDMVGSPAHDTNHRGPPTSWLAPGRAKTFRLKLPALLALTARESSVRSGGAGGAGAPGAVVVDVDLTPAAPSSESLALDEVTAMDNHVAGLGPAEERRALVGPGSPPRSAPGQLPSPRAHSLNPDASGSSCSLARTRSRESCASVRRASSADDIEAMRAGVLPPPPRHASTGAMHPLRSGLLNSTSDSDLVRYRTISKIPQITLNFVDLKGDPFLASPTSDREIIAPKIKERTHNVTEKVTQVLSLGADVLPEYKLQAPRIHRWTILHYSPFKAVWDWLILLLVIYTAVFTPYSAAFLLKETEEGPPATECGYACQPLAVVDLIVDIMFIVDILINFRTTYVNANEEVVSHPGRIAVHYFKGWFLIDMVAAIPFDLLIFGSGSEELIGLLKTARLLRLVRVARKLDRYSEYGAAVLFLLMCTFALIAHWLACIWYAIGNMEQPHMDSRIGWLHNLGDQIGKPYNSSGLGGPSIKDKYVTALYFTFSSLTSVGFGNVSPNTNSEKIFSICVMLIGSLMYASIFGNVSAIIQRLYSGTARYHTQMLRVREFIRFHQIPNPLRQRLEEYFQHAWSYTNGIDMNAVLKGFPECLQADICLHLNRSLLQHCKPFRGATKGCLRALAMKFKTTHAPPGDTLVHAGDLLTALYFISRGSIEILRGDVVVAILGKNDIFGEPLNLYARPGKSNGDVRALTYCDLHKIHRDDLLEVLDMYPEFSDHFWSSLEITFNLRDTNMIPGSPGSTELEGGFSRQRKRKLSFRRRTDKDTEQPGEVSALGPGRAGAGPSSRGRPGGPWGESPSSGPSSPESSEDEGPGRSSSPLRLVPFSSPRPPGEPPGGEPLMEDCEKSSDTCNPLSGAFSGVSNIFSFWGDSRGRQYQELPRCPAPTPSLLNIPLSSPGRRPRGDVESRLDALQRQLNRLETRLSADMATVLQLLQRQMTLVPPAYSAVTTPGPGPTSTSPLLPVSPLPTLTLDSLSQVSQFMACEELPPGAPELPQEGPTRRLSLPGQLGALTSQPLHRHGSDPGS
row,SMILES,"hERG current change (%, negative = inhibition) at 1uM"
1,O=c1[nH][nH]c(C(F)(F)F)c1C=NCc1cccc(Cl)c1,5.43%
2,CCOc1ccc(NC(=O)CN(C)CC(=O)Nc2ccccc2C#N)cc1OCC,14.1%
3,CCN(c1ccccc1)S(=O)(=O)c1ccc(NN)nc1,7.09%
4,COc1ccc(S(=O)(=O)N2CCC(C(=O)O)(c3ccccc3)CC2)cc1,15.6%
5,CC(=O)Nc1ccc2nsnc2c1,14.9%
6,COc1ccc2c(C)cc(SCn3nnc4ccccc4c3=O)nc2c1,8.97%
7,N#Cc1ccccc1Cn1c(=O)n(CCCC(=O)NCc2ccc3c(c2)OCO3)c(=O)c2ccccc21,-0.975%
8,Cc1ccccc1NC(=O)Cn1nnc(-c2ccc(CN3CCC(C)CC3)cc2)n1,0.785%
9,CC(C)OC(=O)C1C(=O)NC2(C)CC1c1ccccc1O2 (centres unmarked),20.8%
10,COc1ccc(NC(=O)CN2C(=O)COc3ccc(S(=O)(=O)N4CCCCCC4)cc32)cc1,15.1%
11,CCCOc1c(OC)cccc1C1CC(=O)Nc2cc(OC)c(OC)c(OC)c21 (centres unmarked),3.27%
12,Cc1ccc(C)n1-c1ccc(-n2cnnn2)cc1,7.48%
13,Cl.O=C(CN1CCCC(O)C1)N1c2ccccc2Sc2ccc(C(F)(F)F)cc21 (centres unmarked),11.3%
14,CCCCCCCc1ccc(C2NC(=S)NC3=C2C(=O)c2ccccc23)cc1 (centres unmarked),8.33%
15,CCOC(=O)[C@@H]1[C@H]2COc3ccccc3[C@H]2N2C(=O)N(c3cccc(Cl)c3)C(=O)[C@@]12C,24.7%
16,Br.CCOC(=O)CCCc1sc(N)nc1-c1[nH]c(=O)[nH]c1C,14.9%
17,CCCSc1nc(N2CCCC2)c2c(c1C#N)CC(C)(C)OC2,10.1%
18,O=c1[nH]c(N/N=C/c2ccccc2Br)nnc1-c1ccccc1,9.67%
19,COc1ccc(NC(=O)CC2SC(=NCc3ccccc3OC)NC2=O)cc1 (centres unmarked),10.2%
20,O=C(NCCOc1ccc(Cl)cc1)C1CC(=O)N(c2ccc(F)cc2)C1 (centres unmarked),-43.8%
21,CCc1ccc(NC(=O)c2cnn3c(C(F)F)cc(C)nc23)cc1,-7.69%
22,COc1ccc(/C=C(\C#N)C(=O)OCC(=O)NCc2ccccc2Cl)cc1,7.24%
23,CC(CNc1nc2ccccc2n2cnnc12)c1ccccc1 (centres unmarked),2.21%

row,SMILES,"hERG current change (%, negative = inhibition) at 1uM"
1,Cc1ccc(C(CNS(=O)(=O)c2ccc(Cl)cc2)N2CCN(C)CC2)cc1 (centres unmarked),-42.1%
2,O=C1c2ccsc2SCCN1Cc1c(F)cccc1Cl,4.77%
3,CN1CCN(CC(=O)Nc2nc3c(s2)CCCC3)CC1,11.6%
4,COc1ccc(N(CC(=O)NCCC2=CCCCC2)S(=O)(=O)c2ccccc2F)cc1,10.4%
5,CCOC(=O)C1=C(C)NC(=O)NC1C(C)C (centres unmarked),12.1%
6,O=c1c2ccccc2nc(-c2ccccc2)n1-c1ccccc1,10.9%
7,CC[n+]1ccc(C)c2cc(SC(F)(F)F)ccc21.Cc1ccc(S(=O)(=O)[O-])cc1,9.51%
8,CC(C)(C)C1CCc2c(sc(NC(=O)c3cc(C4CC4)on3)c2C#N)C1 (centres unmarked),7.34%
9,O=C(COC(=O)CNC(=O)c1sc2ccccc2c1Cl)Nc1c(Cl)cc(Cl)cc1Cl,9.38%
10,Cc1cccc(Cl)c1OCCCn1ccnc1.O=C(O)C(=O)O,11.5%
11,CN(C(=O)CN1C(=O)S/C(=C\c2ccc(F)cc2)C1=O)C1CCS(=O)(=O)C1 (centres unmarked),1.16%
12,Cc1ccc(S(=O)(=O)N2CCN(S(=O)(=O)c3ccccc3)C2c2ccc(N(C)C)cc2)cc1 (centres unmarked),13.8%
13,O=[N+]([O-])c1ccc(Nc2ccccc2F)nc1,6%
14,CC(=O)c1ccc(N=c2scc(C)n2C(C)C)cc1,8.93%
15,COc1ccc(C)cc1NC(=O)CSc1nnc(-c2ccco2)n1Cc1ccco1,11.5%
16,COC(=O)CSc1nnc(-c2ccoc2C)n1-c1ccc(C)cc1,3.86%
17,Cc1ccc(-c2nnc(CSc3nc4cc5c(cc4cc3C)OCO5)o2)cc1,10.1%
18,CCOC(=O)C1=NN(c2ccccc2)C(=O)C1,11.1%
19,CCC(C)[C@@H](N)C(=O)N/N=C/c1cccc2nccnc12.Cl (some centres unmarked),9.14%
20,CCC(C(=O)NC(C)(C)C)N(Cc1ccc(F)cc1)C(=O)c1snc(C(N)=O)c1N (centres unmarked),17.5%
21,Cc1cc(C)cc(N(C(=O)C(F)(F)F)C(C(=O)NC2CCCCC2)c2cccs2)c1 (centres unmarked),0.475%
22,Cl.O=C(CN1CCOCC1)c1ccc(Br)cc1,13.3%
23,COc1ccc2c(CC(=O)OCC(=O)c3ccccc3OC)coc2c1,1.27%

row,SMILES,"hERG current change (%, negative = inhibition) at 1uM"
1,Cc1nnc(NCCO)c2ccccc12,14.7%
2,CC1(C)CC(=O)N(CC(=O)NCc2ccc(F)cc2)c2ccccc2S1(=O)=O,3.41%
3,Cc1ccc(-c2nn(C)c(=O)c3ccccc23)cc1CNC(=O)NC1CCCCC1,11.1%
4,CCCn1c(C)cc(C(=O)COC(=O)c2nccnc2N)c1C,8.53%
5,COc1ccc(C(=O)NC(=S)Nc2ccc(N3CCCC3)cc2)cc1OC,11.3%
6,O=C(O)c1ccc(/C=N/NC(=S)NC2CCCCC2)cc1,11.3%
7,CCOc1ccc(C(=O)Nc2ccc(CN3CCOCC3)cc2)cc1Br,0.28%
8,COc1ccc(C2=NOC(Cn3c(Cc4ccc(Cl)cc4)nc4c3c(=O)n(C)c(=O)n4C)C2)cc1 (centres unmarked),6.87%
9,COc1ccc2nc(SC(C)C(=O)NC3(C#N)CCCCC3)[nH]c2c1 (centres unmarked),8.93%
10,O=C(CCNS(=O)(=O)c1ccc2[nH]c(=O)oc2c1)NCc1ccc(F)cc1,17.8%
11,COc1c(/C=N/Nc2nc(N3CCCCC3)nc(N3CCCCC3)n2)cccc1[N+](=O)[O-],0.144%
12,CNC(=O)C1(C(F)(F)F)C/C(=C\CCO)CCCO1 (centres unmarked),11.4%
13,Cc1cccc(/N=C/C2=C(O)CC(C)(C)CC2=O)n1,15.7%
14,CN1CC=C2C(C#N)=C(N)C(C#N)(C#N)C(c3ccsc3)C2C1 (centres unmarked),2.18%
15,Cc1cc(C=C2C(=O)N(C)C(=S)N(C)C2=O)c(C)n1C1CCCCC1,6.27%
16,CCCSc1nc(C)c(C(C)=O)cc1C#N,7.88%
17,O=C(NCCCc1ccccn1)C1CCC(=O)N(Cc2cccc(F)c2)C1 (centres unmarked),14.3%
18,CC(=O)NCCc1c[nH]c2ccccc12,7.32%
19,Cc1cc(C)cc(NC(=O)CCC(=O)N2CCSc3ccccc32)c1,6.19%
20,Cc1ccc(S(=O)(=O)NCCC(=O)N2CCCCCCC2)cc1C,-2.26%
21,CCN1CCN(c2cc(C)c3cc(NC(=S)N4CCN(c5ccccc5F)CC4)ccc3n2)CC1,13.5%
22,Cc1ccc(NC(=O)C2CCN(S(C)(=O)=O)CC2)c(C)c1,14%
23,Cc1cc(N2CCN(c3ccccc3)CC2)nc(N)n1.Cl,-15.6%

row,SMILES,"hERG current change (%, negative = inhibition) at 1uM"
1,CC(C)CNC(=S)N1CCC(C(=O)c2ccc(F)cc2)CC1,-5.66%
2,COc1cccc(-c2nn(-c3ccccc3)cc2C(=O)OCC(=O)Nc2ncc(Cl)cc2Cl)c1,-7.33%
3,Cc1nn(Cc2c(F)cccc2Cl)c(C)c1[N+](=O)[O-],14.3%
4,O=C(CNc1cccc(Cl)c1)c1ccc(Br)cc1,17.7%
5,CC1CC(C)CN(C(=O)CCn2c(=O)oc3ccccc32)C1 (centres unmarked),9.67%
6,O=C(COC(=O)CNC(=O)c1ccc(Br)cc1)NCCC1=CCCCC1,16.8%
7,O=C(N/N=C/c1ccc(OCC(=O)N2CCCCC2)cc1)c1ccccc1,14.2%
8,COc1ccc(Cl)cc1N(C(=O)c1ccco1)C(C(=O)NC1CCCC1)c1cccnc1 (centres unmarked),4.1%
9,Cc1ccc(S(=O)(=O)NCCC(=O)N2CCN(S(=O)(=O)c3ccccc3)CC2)cc1C,10.8%
10,COc1ccc(/C=N/NS(=O)(=O)c2ccccc2)cc1OC(=O)c1ccc(C)cc1,12.8%
11,O=C(O)c1nc(-c2ccccc2)n(-c2ccccc2)n1,7%
12,CCCCOC(=O)Nc1cc(Cl)ccc1C,11.2%
13,COc1ccccc1C(=O)NC(CCSC)C(=O)NCCCSc1ccccc1 (centres unmarked),1.92%
14,Cc1nc(-c2nc(-c3c(C(=O)NN)noc3C)cs2)cs1,14.6%
15,O=C(OCc1cc(=O)n2c(n1)sc1ccccc12)c1ccc(O)cc1,17.3%
16,Nn1c(Cc2cccc3ccccc23)nnc1SCC(=O)NC1CCS(=O)(=O)C1 (centres unmarked),15.2%
17,CCOC(=O)C1CCCN(S(=O)(=O)c2ccc(F)c(C(=O)Nc3ccc(F)c(F)c3)c2)C1 (centres unmarked),-14.8%
18,Cc1ccc(NC(=O)COc2coc(CN3c4ccccc4CC3C)cc2=O)c(C)c1 (centres unmarked),-0.863%
19,COc1ccc(S(=O)(=O)Nc2cccc(SC)c2)cc1C(=O)N1CCOCC1,16.1%
20,COc1c(Cl)cc(C(=O)NN)cc1Cl,1.37%
